In all, about 1,100 compounds went through this assay and about 340 (31%) were called active. The shares of active, inactive and inconclusive entries below differ from those in the screen. Calls follow the shape of the dose curve; as a rule, active = well fitted inhibition curve with a large enough effect; inconclusive = small, poorly fitted or top-dose-only effect; inactive = flat fitted curve, though single readings scatter. Potencies of inconclusive entries are doubtful fits and often do not repeat.
Each molecule was assayed against Phosphatidylinositol 5-phosphate 4-kinase type-2 alpha (Homo sapiens) (UniProt P48426) (assay: qHTS for Inhibitors of PI5P4K: Confirmation in Primary Assay). Settings: PI5P4Kalpha enzyme, ADP-Glo luminescence, 60 min; activity change, negative = inhibition: at 76.9 µM (top of the series).
Chain of UniProt P48426 (P48426 whole entry, looked up): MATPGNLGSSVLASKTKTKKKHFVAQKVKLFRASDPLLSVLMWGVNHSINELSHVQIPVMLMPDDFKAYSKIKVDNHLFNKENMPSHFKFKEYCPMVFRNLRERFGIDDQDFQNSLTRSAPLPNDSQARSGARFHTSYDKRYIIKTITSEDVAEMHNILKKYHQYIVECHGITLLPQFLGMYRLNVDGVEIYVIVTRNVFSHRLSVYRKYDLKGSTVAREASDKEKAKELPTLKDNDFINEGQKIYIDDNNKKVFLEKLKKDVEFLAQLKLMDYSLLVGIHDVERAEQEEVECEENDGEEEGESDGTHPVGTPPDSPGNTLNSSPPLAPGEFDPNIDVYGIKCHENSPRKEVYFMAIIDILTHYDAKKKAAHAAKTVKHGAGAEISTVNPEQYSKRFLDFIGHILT
Outline: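 Human PI5P4Kα activity was measured as ADP generation using ADP-Glo luminescence. Reactions ran 60 minutes at room temperature with 5 microM ATP in buffered conditions at pH 7.4 containing 5% DMSO.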
% is scaled to controls: 0 for no effect and ±100 for the full control effect; potency is read from the fitted curve at half-maximal effect; tags tell the direction and shape of the fitted curve.
Also: nearly all actives have a fitted effect of over 65% in size.

| Structure (SMILES) | Potency | activity change, negative = inhibition |
| --- | --- | --- |
| Cc1cc(O)ccc1Nc1cc(-c2cccc(N(C)C)c2)ncn1 | active: 12.6 µM |  |
| COc1ccccc1CNc1nc(NCc2ccc(C)cc2C)c2sccc2n1 | inconclusive: 28.2 µM [inhibitor, single point] |  |
| COc1ccc(OC)c(C2CC(=O)N3CN(c4cccc(Cl)c4C)CSC3=C2C#N)c1 (stereo not given) | inconclusive: 35.5 µM [inhibitor, single point] |  |
| COc1ccccc1-c1nc2ccccc2n(CC(C)C)c1=O | inconclusive: 15.8 µM [inhibitor, partial curve] |  |
| CCCCN(C(=O)c1cccc(-n2cccc2)c1)c1c(N)n(CCC)c(=O)[nH]c1=O | inconclusive: 17.8 µM [inhibitor, partial curve] |  |
| Cc1ccc(S(=O)(=O)N2CCN(C(=O)c3cccc(-n4cccc4)c3)CC2)cc1 | inconclusive: 5.01 µM [inhibitor, partial curve] |  |
| CCOc1ccc(NC(=O)N2CCC(n3nnc4ccccc43)CC2)cc1 |  | inactive: 1.23% |
| CCS(=O)(=O)Nc1ccc(-c2nc3cccnc3s2)cc1 | active: 22.4 µM |  |
| Cc1cc2nc(-c3ccco3)c(Cc3cccc(Cl)c3)n2c(C)c1Br | inconclusive: 3.98 µM [inhibitor, full curve] |  |
| Cc1cc(NC(=O)CSc2cn(CCNC(=O)c3ccccc3)c3ccccc23)no1 | active: 14.1 µM |  |
| Cc1onc(-c2c(F)cccc2Cl)c1C(=O)OCC(=O)NCc1ccco1 | inconclusive: 17.8 µM [inhibitor, partial curve] |  |
| O=c1oc2c(O)cccc2cc1-c1nc2ccccc2[nH]1 | inconclusive: 2.24 µM [inhibitor, full curve] |  |
| NS(=O)(=O)c1cccc(NC(=O)CSc2nnnn2-c2ccccc2)c1 |  | inactive: 1.94% |
| O=C(Cc1ccc(Cl)cc1Cl)Nc1cccc(S(=O)(=O)Nc2ccccc2F)c1 | active: 3.98 µM |  |
| CCOC(=O)c1cc2c(=O)[nH]c(C(Cl)(Cl)Cl)nc2o1 | inconclusive: 25.1 µM [inhibitor, partial curve] |  |
| N#CC1=C2SCN(c3ccccc3)CN2C(=O)CC1c1c(Cl)cccc1Cl (stereo not given) | active: 22.4 µM |  |
| C=CCNC(=O)COC(=O)c1c2c(nc3ccccc13)CCC2 | inconclusive: 17.8 µM [inhibitor, partial curve] |  |
| Cc1c(C(=O)N2CCCC2)oc2ccc(Br)cc12 | inconclusive: 28.2 µM [inhibitor, partial curve] |  |
| NC(=O)c1ccsc1NC(=O)COC(=O)c1cnccn1 | inconclusive: 15.8 µM [inhibitor, partial curve] |  |
| COC(=O)c1ccc2c(c1)/C(=C/c1cc(Br)c(O)c(Br)c1)C(=O)N2 | active: 0.823 µM |  |
| Cc1oc(-c2ccc(Cl)cc2)cc1-c1nn2c(-c3ccoc3C)nnc2s1 | active: 14.1 µM |  |
| O=C(Nc1cc(S(=O)(=O)N2CCOCC2)ccc1N1CCCC1)c1ccc2c(c1)S(=O)(=O)c1ccccc1C2=O | inconclusive: 11.2 µM [inhibitor, partial curve] |  |

| Structure (SMILES) | Potency | activity change, negative = inhibition |
| --- | --- | --- |
| c1cc2c(cc1C1=NNC(=NC3CC3)SC1)OCCO2 | active: 28.2 µM |  |
| O=C(Nc1ccccc1Cl)c1ccc2nccnc2c1 |  | inactive: -5.39% |
| COc1cccc(C2CC(=O)N3CN(c4cccc(Cl)c4C)CSC3=C2C#N)c1OC (stereo not given) | active: 39.8 µM |  |
| CC(=O)Nc1cccc2ccc(O)cc12 | inconclusive: 31.6 µM [inhibitor, partial curve] |  |
| CN1CCN(S(=O)(=O)c2ccc(N3CCc4ccccc4C3)nc2)CC1 |  | inactive: -1.8% |
| O=C(O)c1ccc(Nc2nc3ccccc3nc2NS(=O)(=O)c2cccs2)cc1 | inconclusive: 20 µM [inhibitor, partial curve] |  |
| COCCNC(=O)C1Cc2c(-c3ccc(NC(C)=O)cc3)ccnc2O1 (stereo not given) | inconclusive: 31.6 µM [inhibitor, partial curve] |  |
| CCOC(=O)Nc1ccc(NCc2ccc(F)cc2)nc1N | active: 31.6 µM |  |
| Cc1cc(C)cc(NC(=O)Cn2nnc(C(=O)NCc3ccc(F)cc3)c2N)c1 |  | inactive: -0.223% |
| O=C(Nc1ccsc1C(=O)O)c1cccc(C(F)(F)F)c1 | inconclusive: 20 µM [inhibitor, partial curve] |  |
| CCOc1ccc(CCNS(=O)(=O)c2cn(C)cn2)cc1OCC |  | inactive: -0.0108% |
| CS(=O)(=O)N1N=C(c2ccco2)CC1c1ccco1 (stereo not given) | inconclusive: 20 µM [inhibitor, partial curve] |  |
| CCNC(=O)COC(=O)c1cc(-c2ccco2)nc2ccccc12 | active: 14.1 µM |  |
| Oc1ccc(CNc2ccccc2F)c2cccnc12 | inconclusive: 17.8 µM [inhibitor, partial curve] |  |
| COC(=O)Nc1ccc(S(=O)(=O)N2CCC(C(=O)N3CCC(C)CC3)CC2)cc1 |  | inactive: -3.71% |
| Cc1ccccc1NC(=O)CSc1nc2[nH]c(=O)cc(O)c2s1 | inconclusive: 35.5 µM [inhibitor, single point] |  |
| Cc1sc2ncn(CC(=O)N3CCC(C(N)=O)CC3)c(=O)c2c1S(=O)(=O)N1CC(C)CC(C)C1 (stereo not given) |  | inactive: -2.16% |
| NC(=O)c1ccsc1NC(=O)COC(=O)CNC(=O)c1ccc(F)cc1 | inconclusive: 28.2 µM [inhibitor, partial curve] |  |
| Cc1ccc([N+](=O)[O-])cc1Nc1nc(N2CCOCC2)nc(N2CCOCC2)n1 |  | inactive: 2.38% |
| COc1ccc(N2Cc3cccc(C(=O)N4CCN(C(=O)c5ccco5)CC4)c3C2=O)cc1 | inconclusive: 14.1 µM [inhibitor, partial curve] |  |
| O=C(Nc1nc(-c2ccncc2)cs1)C1COc2ccccc2O1 (stereo not given) | inconclusive: 7.94 µM [inhibitor, partial curve] |  |
| N#Cc1c(SCC(=O)Nc2nncs2)sc2c(O)cc(=O)[nH]c12 | active: 8.91 µM |  |

| Structure (SMILES) | Potency | activity change, negative = inhibition |
| --- | --- | --- |
| N#CC1=C2SCN(c3ccccc3)CN2C(=O)CC1c1ccccc1Cl (stereo not given) | active: 25.1 µM |  |
| CCC(C)n1c(SCC(=O)Nc2ccc3[nH]c(=O)[nH]c3c2)nc2ccccc2c1=O (stereo not given) |  | inactive: -23.7% |
| Cn1nnnc1SCc1nc2scc(-c3ccc(Cl)cc3)c2c(=O)[nH]1 | inconclusive: 15.8 µM [inhibitor, partial curve] |  |
| Fc1cccc(Cc2c(-c3ccco3)nc3ccc(Br)cn23)c1 | inconclusive: 11.2 µM [inhibitor, partial curve] |  |
| CCOc1ccc(OCc2ccc(C(=O)N3CCOCC3)cc2)cc1 |  | inactive: -13.7% |
| O=C(CCC(=O)N1CCN(c2ccccn2)CC1)c1ccc(Cl)s1 | inconclusive: 15.8 µM [inhibitor, partial curve] |  |
| COCCN(C(=O)COC(=O)c1cc2c(s1)CCCC2)c1c(N)n(Cc2ccccc2)c(=O)[nH]c1=O | inconclusive: 15.8 µM [inhibitor, partial curve] |  |
| Cc1cc(NC(=O)Nc2ccccc2[N+](=O)[O-])no1 |  | inactive: -3.15% |
| O=C(c1ccc(Br)cc1)c1cc2ccc(O)cc2oc1=O | active: 11.2 µM |  |
| Cc1ccccc1CN1C(=O)C(C)Sc2ccc(-c3ccco3)cc21 (stereo not given) | inconclusive: 14.1 µM [inhibitor, partial curve] |  |
| CC(C)NC(=O)c1onc(CSc2ccccc2F)c1C(=O)O |  | inactive: -0.693% |
| O=C1Nc2ccc(S(=O)(=O)NCc3ccccn3)c3cccc1c23 | inconclusive: 31.6 µM [inhibitor, partial curve] |  |
| NC(=O)COc1ccc(-n2cnnn2)cc1 | inconclusive: 28.2 µM [inhibitor, partial curve] |  |
| Cc1cccc(C2Nc3ccccc3C(=O)N2c2ccc(F)cc2)n1 (stereo not given) |  | inactive: 10.2% |
| COc1cccc2cc(C(C)N(CCCN3CCOCC3)C(=O)Nc3ccccc3)oc12 (stereo not given) |  | inactive: 1.88% |
| Cc1ccc(NC(=O)CN(C)C(=O)COc2ccc(C(=O)c3ccc(F)cc3)cc2)cc1 |  | inactive: 7.3% |
| OCCCNc1nccc(-c2cc(Nc3cccc(Cl)c3)ncn2)n1 | active: 14.1 µM |  |
| COc1ccc(N2CC(C(=O)Nc3nc4ccc(S(C)(=O)=O)cc4s3)CC2=O)cc1 (stereo not given) | inconclusive: 28.2 µM [inhibitor, partial curve] |  |
| Cc1ccc(N=c2oc3cc(O)ccc3cc2C(N)=O)cc1 | inconclusive: 25.1 µM [inhibitor, partial curve] |  |
| Nc1nc(N)c2c(ccc3c2ccn3Cc2cccc([N+](=O)[O-])c2)n1 | inconclusive: 31.6 µM [inhibitor, single point] |  |
| Cc1ccn2c(=O)nc(SCC(=O)NCc3ccccc3Cl)nc2c1 | inconclusive: 28.2 µM [inhibitor, partial curve] |  |

Source: PubChem BioAssay AID743286 (National Center for Advancing Translational Sciences (NCATS), 2014)
